PubChem BioAssay (NCATS)
Several values for one entry are separate records, joined by “and”; a condition that tells them apart may be missing. Equal entries are not always repeated. Inconclusive results, whose numbers are uncertain, are shown with a selection of clear calls. Potencies of inconclusive entries are doubtful fits and often do not repeat. Activity calls are given as the source filed them. Calls follow the shape of the dose curve; as a rule, active = well fitted cell-killing curve with a large enough effect; inconclusive = small, poorly fitted or top-dose-only effect, or effect the other way; inactive = no such curve, though single readings can be large or run the other way.

Legend:
[1] = Viability qHTS for spleen associated tyrosine kinase inhibitor (SYKi) naive MV4-11 cells (AID 1963823); conditions: MV4-11 AML viability, CellTiter-Glo luminescence, 72 h; series mostly up to 45 µM; also: nearly all actives have a fitted effect of over 40% in size
Method in brief: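 SYK inhibitor-naive MV4-11 cells, 500 per well, exposed to compounds for 72 hr at 37 C, 5% CO2. Viability read as CellTiter-Glo luminescence after 10 min at room temperature.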

[2] = Viability qHTS for spleen associated tyrosine kinase inhibitor (SYKi) drug resistant MV4-11 cells (AID 1963824); also: nearly all actives have a fitted effect of over 35% in size
Method in brief: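 CellTiter-Glo luminescence, read 10 min after reagent addition, reports viability after a 72 hr compound exposure. Cells are an MV4-11 line made resistant to SYK inhibition, seeded at 500 per well onto compound-containing plates.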
Potency is read from the fitted curve at half-maximal effect; tags tell the direction and shape of the fitted curve.

Compound | Potency [1] | Potency [2]
CC(=O)NC[C@H]1CN(c2ccc(N3CCN(C(=O)CO)CC3)c(F)c2)C(=O)O1 | inconclusive: 6.51 µM [cytotoxic, partial curve] | inconclusive: 7.31 µM [cytotoxic, partial curve]
CC(NC(=O)Cc1cc(F)cc(F)c1)C(=O)NC1C(=O)N(C)c2ccccc2-c2ccccc21 (stereo not drawn) | active: 5.17 µM | inconclusive: 5.17 µM [cytotoxic, full curve]
O=C(NCCCn1ccnc1)c1cc(-c2ccco2)on1 | inconclusive: 6.51 µM [cytotoxic, full curve] | inconclusive: 14.6 µM [cytotoxic, partial curve]
Nc1nc2c(nc(Sc3ccc(Cl)cc3)n2[C@@H]2O[C@@H]3COP(=O)(O)O[C@H]3[C@H]2O)c(=O)[nH]1 | inactive | inactive
C/C=C/C=C/C(O)=C1\C(O)=C(C)C(=O)[C@@]2(C)OC(=O)[C@@](C)(NC(=O)/C=C/C(=O)O)[C@@H]12 | inactive | inactive
CCN1/C(=C/C(C)=O)Sc2ccc(OC)cc21 | inconclusive: 20.9 µM [cytotoxic, partial curve] | inconclusive: 16.6 µM [cytotoxic, partial curve] and active: 8.2 µM
COc1ccc(CCCN2CCC(COC(c3ccccc3)c3ccccc3)CC2)cc1 | active: 10.3 µM | active: 10.3 µM
CCN1CCCC1CN (stereo not drawn) | inactive | inactive
Clc1ccc2c(c1)C1=NCCN1c1c(-c3noc(C4CC4)n3)ncn1-2 | inconclusive: 23.1 µM [cytotoxic, partial curve, poor fit] | inactive
